PMC9911399, “Two distinct binding modes provide the RNA-binding protein RbFox with extraordinary sequence specificity”
Changes are numbered by the printed parent chain; changes in the protein carry UniProt numbers. Some of the results follow.

T1: RBFOX1 RRM (Homo sapiens, UniProt Q9NWB1 109-208)
T1 sequence: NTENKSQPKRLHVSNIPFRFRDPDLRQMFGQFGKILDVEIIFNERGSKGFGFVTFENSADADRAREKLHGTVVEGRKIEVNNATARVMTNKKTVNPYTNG

B1: CCUAGUU (DNA:RNA)
RNA: GGGAGACCGGAAUUCAGAUUGUCCCCUAGUUUUAAAUCCCGUCGUAGCCACCA
DNA 1: CAATCTGAATTCCGGTCTCCC
DNA 2: TGGTGGCTACGACGGGATT
B2: AUUGAAU (DNA:RNA)
RNA: B1 RNA with C25A, C26U, A28G, G29A, U30A
DNA 1: CAATCTGAATTCCGGTCTCCC
DNA 2: TGGTGGCTACGACGGGATT
B3: CUUUCUU (DNA:RNA)
RNA: B1 RNA with C26U, A28U, G29C
DNA 1: CAATCTGAATTCCGGTCTCCC
DNA 2: TGGTGGCTACGACGGGATT
B4: AAAUUGG (DNA:RNA)
RNA: GGGAGACCGGAAUUCAGAUUGUCCAAAUUGGUUAAAUCCCGUCGUAGCCACCA
DNA 1: CAATCTGAATTCCGGTCTCCC
DNA 2: TGGTGGCTACGACGGGATT
B5: AGCGUCG (DNA:RNA)
RNA: B4 RNA with A26G, A27C, U28G, G30C
DNA 1: CAATCTGAATTCCGGTCTCCC
DNA 2: TGGTGGCTACGACGGGATT
B6: UUAACUU (DNA:RNA)
RNA: B1 RNA with C25U, C26U, U27A, G29C
DNA 1: CAATCTGAATTCCGGTCTCCC
DNA 2: TGGTGGCTACGACGGGATT
B7: ACCGUCC (DNA:RNA)
RNA: B4 RNA with A26C, A27C, U28G, G30C, G31C
DNA 1: CAATCTGAATTCCGGTCTCCC
DNA 2: TGGTGGCTACGACGGGATT
B8: ACCAGCU (DNA:RNA)
RNA: B1 RNA with C25A, U27C, U30C
DNA 1: CAATCTGAATTCCGGTCTCCC
DNA 2: TGGTGGCTACGACGGGATT
B9: CCGUUGG (DNA:RNA)
RNA: B4 RNA with A25C, A26C, A27G
DNA 1: CAATCTGAATTCCGGTCTCCC
DNA 2: TGGTGGCTACGACGGGATT
B10: GAUGUUG (DNA:RNA)
RNA: B4 RNA with A25G, A27U, U28G, G30U
DNA 1: CAATCTGAATTCCGGTCTCCC
DNA 2: TGGTGGCTACGACGGGATT
B11: GCUUUAA (DNA:RNA)
RNA: B4 RNA with A25G, A26C, A27U, G30A, G31A
DNA 1: CAATCTGAATTCCGGTCTCCC
DNA 2: TGGTGGCTACGACGGGATT
B12: GAACACA (DNA:RNA)
RNA: B4 RNA with A25G, U28C, U29A, G30C, G31A
DNA 1: CAATCTGAATTCCGGTCTCCC
DNA 2: TGGTGGCTACGACGGGATT
B13: CCCAGGU (DNA:RNA)
RNA: B1 RNA with U27C, U30G
DNA 1: CAATCTGAATTCCGGTCTCCC
DNA 2: TGGTGGCTACGACGGGATT
B14: UUUGCCA (DNA:RNA)
RNA: B1 RNA with C25U, C26U, A28G, G29C, U30C, U31A
DNA 1: CAATCTGAATTCCGGTCTCCC
DNA 2: TGGTGGCTACGACGGGATT
B15: CGUAAUC (DNA:RNA)
RNA: B1 RNA with C26G, G29A, U31C
DNA 1: CAATCTGAATTCCGGTCTCCC
DNA 2: TGGTGGCTACGACGGGATT
B16: UCAGAAA (DNA:RNA)
RNA: B4 RNA with A25U, A26C, U28G, U29A, G30A, G31A
DNA 1: CAATCTGAATTCCGGTCTCCC
DNA 2: TGGTGGCTACGACGGGATT
B17: ACACGCG (DNA:RNA)
RNA: B4 RNA with A26C, U28C, U29G, G30C
DNA 1: CAATCTGAATTCCGGTCTCCC
DNA 2: TGGTGGCTACGACGGGATT
B18: GGAUUCU (DNA:RNA)
RNA: B4 RNA with A25G, A26G, G30C, G31U
DNA 1: CAATCTGAATTCCGGTCTCCC
DNA 2: TGGTGGCTACGACGGGATT
B19: CGAACAG (DNA:RNA)
RNA: B4 RNA with A25C, A26G, U28A, U29C, G30A
DNA 1: CAATCTGAATTCCGGTCTCCC
DNA 2: TGGTGGCTACGACGGGATT
B20: UCGAUUA (DNA:RNA)
RNA: B1 RNA with C25U, U27G, G29U, U31A
DNA 1: CAATCTGAATTCCGGTCTCCC
DNA 2: TGGTGGCTACGACGGGATT

What follows are binders tested against T1, RBFOX1 RRM (assay: EMSA; HiTS-Eq, 1 nM pool, 10 min; buffer printed only for the single-RNA assays: 10 mM Tris pH 7.5, 150 mM NaCl, 3.4 mM EDTA, 0.001% NP-40, 30 C). Conditions: tags: His6 N-terminal (pET28a); label: 5' 32P.
Procedure, shortened: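 Relative association constants, normalised to the cognate motif, were derived by comparing read counts of each RNA species with those of the control reaction. The RNA sequenced was the free fraction, separated by 8% native PAGE after a 10 min equilibration in 50 µL of 1 nM 5′-radiolabelled RNA (7 randomized nucleotides) with increasing concentrations of purified wild-type or mutant RbFox RRM.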

Binder | binding signal
B1 | 0.00703 KA relative to UGCAUGU
B2 | 0.00729 KA relative to UGCAUGU
B3 | 0.0102 KA relative to UGCAUGU
B4 | 0.00858 KA relative to UGCAUGU
B5 | 0.00992 KA relative to UGCAUGU
B6 | 0.00357 KA relative to UGCAUGU
B7 | 0.00549 KA relative to UGCAUGU
B8 | 0.0028 KA relative to UGCAUGU
B9 | 0.0158 KA relative to UGCAUGU
B10 | 0.0181 KA relative to UGCAUGU
B11 | 0.0104 KA relative to UGCAUGU
B12 | 0.004 KA relative to UGCAUGU
B13 | 0.00633 KA relative to UGCAUGU
B14 | 0.012 KA relative to UGCAUGU
B15 | 0.00533 KA relative to UGCAUGU
B16 | 0.00502 KA relative to UGCAUGU
B17 | 0.00375 KA relative to UGCAUGU
B18 | 0.0181 KA relative to UGCAUGU
B19 | 0.00625 KA relative to UGCAUGU
B20 | 0.00702 KA relative to UGCAUGU
